Measurements from patent EP1790655B1, “Biologically active peptides” (CMS Peptides Patent Holding Company Limited, priority 2001, dated 2003).
Part of at least one peptide drawing is inferred or uncertain, most often the ends. Marks after values point to notes of the source that are not given here. Residues, ends and D or L forms follow the SMILES beside them.

Assays:
[1] = system: anti-SRBC antibody; experiment: Sheep Red Blood Cell (SRBC) hemolysis test, antibody formation; assay type: in vivo, BALB/c mice; settings: IFN-γ, IL-2 3×10^5IU/kg/day, SRBC i.p. on day 12, X±SD
[2] = system: secretion of IFN by T lymphocytes; parameters: species or system BALB/c Mice; settings: mouse, in vivo, ip
[3] = system: thymus gland; experiment: immunity organ weight test, thymus gland; assay type: in vivo, BALB/c Mice; settings: IFN-γ, IL-2 3×10^5IU/kg/day, X±SD
[4] = system: T lymphocyte; experiment: T lymphocyte transformation test (ConA-stimulated spleen cells, MTT) after in vivo dosing of healthy mice; parameters: species or system BALB/c Mice; settings: IFN-γ, IL-2 3×10^5IU/kg/day, X±SD
[5] = system: NK cell; experiment: NK cell cytotoxicity activity test (spleen cells against YAC-1 target cells, MTT) after in vivo dosing; parameters: species or system BALB/c Mice; settings: peptide 0.5µg/kg/day i.p. once per day for 15 days; IFN-γ, IL-2 3×10^5IU/kg/day; X±SD
[6] = system: ascitic fluid type liver cancer H22; experiment: survival of mice with transplanted ascitic fluid type liver cancer H22; assay type: in vivo, BALB/c mice; settings: for Survival days: started 5 days before transplanting, Kaplan-meier mean; for Survival index: versus saline group
[7] = system: L1210 leukemia; experiment: survival of mice with transplanted L1210 leukemia; assay type: in vivo, DBA/2 mice; settings: 0.5µg/kg i.p. once per day; for Survival days: started 5 days before transplanting, Kaplan-meier mean; for Survival index: versus saline group
[8] = peptide 5µg/kg/day i.p. once per day for 15 days
[9] = peptide 0.5µg/kg/day i.p. once per day for 15 days
[10] = peptide 50µg/kg/day i.p. once per day for 15 days
[11] = peptide 500µg/kg/day i.p. once per day for 15 days

C[C@@H](O)[C@H](NC(=O)[C@H](CCCCN)NC(=O)[C@@H](NC(=O)[C@@H](NC(=O)[C@@H]1CCCN1)[C@@H](C)O)[C@@H](C)O)C(=O)N[C@@H](Cc1ccc(O)cc1)C(=O)N[C@@H](Cc1ccccc1)C(=O)N1CCC[C@H]1C(=O)N[C@@H](Cc1c[nH]cn1)C(=O)N[C@@H](Cc1ccccc1)C(=O)O [CMS001] (H-PTTKTYFPHF-OH)
Sample serum index (anti-SRBC antibody formation) [1, 8]: 110±24*^@ Unit
Sample IFN activity (T lymphocyte secreting IFN) [2]: 110±15 IU

CC(C)[C@H](N)C(=O)N[C@H](C(=O)N[C@@H](Cc1ccc(O)cc1)C(=O)N1CCC[C@H]1C(=O)N[C@@H](Cc1c[nH]c2ccccc12)C(=O)N[C@H](C(=O)N[C@@H](CCC(N)=O)C(=O)N[C@@H](CCCNC(=N)N)C(=O)N[C@@H](Cc1ccccc1)C(=O)O)[C@@H](C)O)C(C)C [CMS002] (H-VVYPWTQRF-OH)
Thymus gland index (thymus weight/body weight) [3, 9]: 0.26±0.06*^@^ %
Thymus gland index (thymus weight/body weight) [3, 8]: 0.24±0.05*^ %
Thymus gland index (thymus weight/body weight) [3, 10]: ^@^ 0.21±0.02*^@^ %
Sample serum index (anti-SRBC antibody formation) [1, 9]: 4±1 Unit
Sample serum index (anti-SRBC antibody formation) [1, 11]: 87±18*^@ Unit
stimulation index (T lymphocyte transformation) [4, 10]: 2.6±0.3*^@^
stimulation index (T lymphocyte transformation) [4, 11]: 1.8±0.3
NK cell activity index [5]: 76±9 %

CC(C)[C@H](NC(=O)[C@H](Cc1ccccc1)NC(=O)[C@H](CC(N)=O)NC(=O)[C@@H](N)Cc1ccccc1)C(=O)N1CCC[C@H]1C(=O)N1CCC[C@H]1C(=O)O [CMS003, Phe Asn Phe Val Pro Pro] (H-FNFVPP-OH)
Sample IFN activity (T lymphocyte secreting IFN) [2]: 106±16 IU

CC(C)C[C@H](NC(=O)[C@H](C)NC(=O)CNC(=O)[C@@H]1CCCN1C(=O)[C@H](CC(C)C)NC(=O)[C@H](CC(=O)O)NC(=O)[C@H](CC(=O)O)NC(=O)[C@H](CC(C)C)NC(=O)[C@H](Cc1c[nH]cn1)NC(=O)CNC(=O)[C@@H](NC(=O)[C@H](C)NC(=O)[C@@H](N)CCCCN)C(C)C)C(=O)O [CMS008] (H-KAVGHLDDLPGAL-OH)
Survival days ([6]; 5µg/kg i.p. once per day): 50.7±20.9*^& days
Survival index ([6]; 5µg/kg i.p. once per day): 67.8%

CC(C)C[C@H](NC(=O)[C@@H](NC(=O)[C@@H]1CCCN1C(=O)[C@H](Cc1c[nH]cn1)NC(=O)[C@H](CCC(=O)O)NC(=O)[C@H](CCC(=O)O)NC(=O)[C@@H]1CCCN1C(=O)[C@H](C)NC(=O)[C@@H](NC(=O)[C@H](CCCNC(=N)N)NC(=O)[C@@H](N)CC(C)C)C(C)C)[C@@H](C)O)C(=O)O [CMS009] (H-LRVAPEEHPTL-OH)
Sample IFN activity (T lymphocyte secreting IFN) [2]: 121±15*^ IU

CC(C)C[C@H](NC(=O)[C@@H](NC(=O)[C@@H]1CCCN1C(=O)[C@H](Cc1c[nH]cn1)NC(=O)[C@H](CCC(=O)O)NC(=O)[C@H](CCC(=O)O)NC(=O)[C@@H]1CCCN1C(=O)[C@H](C)NC(=O)[C@@H](NC(=O)[C@@H](N)CCCNC(=N)N)C(C)C)[C@@H](C)O)C(=O)O [CMS011] (H-RVAPEEHPTL-OH)
Sample IFN activity (T lymphocyte secreting IFN) [2]: 89±18 IU
Survival days ([6]; 5µg/kg i.p. once per day): 36.4±22.2*^& days
Survival index ([6]; 5µg/kg i.p. once per day): 60.2%

CC[C@H](C)[C@H](NC(=O)CNC(=O)[C@H](CS)NC(=O)[C@H](C)NC(=O)[C@H](CCC(=O)O)NC(=O)[C@H](CCSC)NC(=O)CNC(=O)[C@@H](N)CC(C)C)C(=O)N[C@@H](Cc1c[nH]cn1)C(=O)N[C@@H](CCC(=O)O)C(=O)N[C@H](C(=O)N[C@H](C(=O)N[C@@H](Cc1ccc(O)cc1)C(=O)O)[C@@H](C)O)[C@@H](C)O [CMS012] (H-LGMEACGIHETTY-OH)
Sample IFN activity (T lymphocyte secreting IFN) [2]: 86±9 IU

CC(C)C[C@H](NC(=O)[C@@H](NC(=O)[C@@H]1CCCN1C(=O)[C@H](Cc1c[nH]cn1)NC(=O)[C@H](CCC(=O)O)NC(=O)[C@H](CCC(=O)O)NC(=O)[C@@H]1CCCN1C(=O)[C@H](C)NC(=O)[C@@H](NC(=O)[C@H](CCCNC(=N)N)NC(=O)[C@@H](N)CC(C)C)C(C)C)C(C)C)C(=O)O [CMS013] (H-LRVAPEEHPVL-OH)
Sample IFN activity (T lymphocyte secreting IFN) [2]: 154±15*^@^ IU

CC[C@H](C)[C@H](N)C(=O)NCC(=O)N[C@@H](CCSC)C(=O)N[C@@H](CCC(=O)O)C(=O)N[C@@H](CO)C(=O)N[C@@H](C)C(=O)NCC(=O)N[C@H](C(=O)N[C@@H](Cc1c[nH]cn1)C(=O)N[C@@H](CCC(=O)O)C(=O)N[C@H](C(=O)N[C@H](C(=O)N[C@@H](Cc1ccc(O)cc1)C(=O)O)[C@@H](C)O)[C@@H](C)O)[C@@H](C)CC [CMS016] (H-IGMESAGIHETTY-OH)
Sample IFN activity (T lymphocyte secreting IFN) [2]: 162±19*^@^ IU

CSCC[C@H](NC(=O)CNC(=O)[C@@H](N)C(C)C)C(=O)NCC(=O)N[C@@H](CCC(N)=O)C(=O)N[C@@H](CCCCN)C(=O)N[C@@H](CC(=O)O)C(=O)N[C@@H](CO)C(=O)N[C@@H](Cc1ccc(O)cc1)C(=O)O [CMS019] (H-VGMGQKDSY-OH)
Survival days [7]: 21.1 ± 5.8 days
Survival index [7]: 26.8%

CSCC[C@H](N)C(=O)N[C@@H](C)C(=O)N[C@H](C(=O)N[C@@H](C)C(=O)N[C@@H](C)C(=O)N[C@@H](CO)C(=O)N[C@@H](CO)C(=O)N[C@@H](CO)C(=O)N[C@@H](CO)C(=O)N[C@@H](CC(C)C)C(=O)O)[C@@H](C)O [CMS021] (H-MATAASSSSL-OH)
Sample IFN activity (T lymphocyte secreting IFN) [2]: 143±17*^@^ IU

N[C@@H](Cc1ccc(O)cc1)C(=O)N[C@@H](CO)C(=O)N[C@@H](Cc1ccccc1)C(=O)O [CMS022, Tyr Ser Phe] (H-Tyr-Ser-Phe-OH)
Sample IFN activity (T lymphocyte secreting IFN) [2]: 145±13*^@^ IU

CC(C)C[C@H](NC(=O)[C@H](CO)NC(=O)[C@@H](N)Cc1ccc(O)cc1)C(=O)O [CMS024, Tyr Ser Leu] (H-Tyr-Ser-Leu-OH)
Survival days ([6]; 0.5µg/kg i.p. once per day): 46.4±14.8*^^&$ days
Survival index ([6]; 0.5µg/kg i.p. once per day): 76.9%
postmortem examination of mice surviving longer than 90 days ([6]; 0.5µg/kg/day i.p.): did not show sign of tumor establishment
mice that could survive longer than 90 days ([6]; 0.5µg/kg/day i.p., n=6, two months after the experiment ended): more than 30%
Survival days ([6]; 5µg/kg i.p. once per day): 40.6±14.6*^&$ days
Survival index ([6]; 5µg/kg i.p. once per day): 54.8%
Survival days ([6]; 50µg/kg i.p. once per day): 36.3±12.7*^&$ days
Survival index ([6]; 50µg/kg i.p. once per day): 38.4%

N[C@@H](Cc1ccccc1)C(=O)N[C@@H](CCC(=O)O)C(=O)N1CCC[C@H]1C(=O)N[C@@H](CO)C(=O)N[C@@H](Cc1ccccc1)C(=O)O [CMS028, Phe Glu Pro Ser Phe] (H-FEPSF-OH)
Sample IFN activity (T lymphocyte secreting IFN) [2]: 96±13 IU

N[C@@H](Cc1ccccc1)C(=O)N[C@@H](CCC(=O)O)C(=O)N[C@@H](CCC(=O)O)C(=O)N[C@@H](CCC(=O)O)C(=O)O [CMS032, Phe Glu Glu Glu] (H-FEEE-OH)
Survival days ([6]; 0.5µg/kg i.p. once per day): 42.8±12.2*^^&$ days
Survival index ([6]; 0.5µg/kg i.p. once per day): 63.3%

CC(C)[C@H](NC(=O)[C@@H](N)Cc1ccccc1)C(=O)N[C@@H](CC(N)=O)C(=O)N[C@@H](CC(=O)O)C(=O)O [CMS035, Phe Val Asn Asp] (H-FVND-OH)
Survival days [7]: 29.3 ± 15.4 days
Survival index [7]: 76.1%
